# According to the supplement of paper PMC8728848:
# This is one part of the list.
# B1: Cohesin-marm-DC-ASGPR (protein)
# chain: LDITSHHHHHHDDLDAVRIKVDTVNAKPGDTVRIPVRFSGIPSKGIANCDFVYSYDPNVLEIIEIEPGDIIVDPNPDKSFDTAVYPDRKIIVFLFAEDSGTGAYAITKDGVFATIVAKVKEGAPNGLSVIKFVEVGGFANNDLVEQKTQFFDGGVNVGDTTEPATPTTPVTTPTTTDDLDAASSKFQRDLVTLRTDFSNFTSNTLAEIQALTSQGSSLQETIASLKAEVEGHKQELQAGASELQEHNKQKAHLGRCPHTCVCPSSFVCVPVHSEILLRVQQLVQDLNKLSCQVAILKNNATTERTCCPINWVEHQGSCYWFSRSGKTWPEAERYCQLENTHLVVINSREEQNFVQAHLGSAYTWMGLSDPEGVWKWVDGTDYSSGFQNWKPGQPDDWQGHGLGGGEDCAHFHPDGRWNDDVCQRSYHWVCEAGLTQASQDSHAS
# What was measured:
# Assay in all cases: glycan array binding signal (z-score within array); higher = stronger binding
# Conditions in all cases: glycan notation: IUPAC condensed, linker removed
# [1] = target: GalNAc(b1-4)GlcNAc(b1-2)Man
# Procedure, shortened: (§1)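 The binding signal is a Z-score computed within each array and averaged over linkers. Arrays of the same protein sequence at different concentrations or buffers were also averaged together. Data originate from 3228 arrays in the Consortium for Functional Glycomics database, kept only where the protein sequence was available.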
# [2] = target: GalNAc(b1-4)GlcNAc(b1-2)Man(a1-3)[GalNAc(b1-4)GlcNAc(b1-2)Man(a1-6)]Man(b1-4)GlcNAc(b1-4)GlcNAc
# Procedure, shortened: as §1
# [3] = target: GalNAc(b1-4)GlcNAc(b1-3)GalNAc(b1-4)GlcNAc
# Procedure, shortened: as §1
# GalNAc(b1-4)GlcNAc6S = target: GalNAc(b1-4)GlcNAc6S
# Procedure, shortened: as §1
# GalNAc(b1-6)GalNAc = target: GalNAc(b1-6)GalNAc
# Procedure, shortened: as §1
# GalNAc3S(b1-4)GlcNAc = target: GalNAc3S(b1-4)GlcNAc
# Procedure, shortened: as §1
# GalNAc3S(b1-4)GlcNAc3S = target: GalNAc3S(b1-4)GlcNAc3S
# Procedure, shortened: as §1
# [4] = target: GalNAc3S(b1-4)[Fuc(a1-3)]GlcNAc
# Procedure, shortened: as §1
# GalNAc4S6S(b1-4)GlcNAc = target: GalNAc4S6S(b1-4)GlcNAc
# Procedure, shortened: as §1
# GalNAc6S(b1-4)GlcNAc = target: GalNAc6S(b1-4)GlcNAc
# Procedure, shortened: as §1
# Glc(a1-4)Glc = target: Glc(a1-4)Glc
# Procedure, shortened: as §1
# [5] = target: Glc(a1-4)Glc(a1-4)Glc(a1-4)Glc
# Procedure, shortened: as §1
# Glc(a1-6)Glc(a1-6)Glc = target: Glc(a1-6)Glc(a1-6)Glc
# Procedure, shortened: as §1
# [6] = target: Glc(a1-6)Glc(a1-6)Glc(a1-6)Glc
# Procedure, shortened: as §1
# Glc(b1-4)Glc = target: Glc(b1-4)Glc
# Procedure, shortened: as §1
# Glc(b1-6)Glc = target: Glc(b1-6)Glc
# Procedure, shortened: as §1
# GlcA(b1-3)Gal = target: GlcA(b1-3)Gal
# Procedure, shortened: as §1
# GlcA(b1-3)GlcNAc = target: GlcA(b1-3)GlcNAc
# Procedure, shortened: as §1
# GlcA(b1-6)Gal = target: GlcA(b1-6)Gal
# Procedure, shortened: as §1
# [7] = target: GlcA3S(b1-3)Gal(b1-4)GlcNAc(b1-2)Man
# Procedure, shortened: as §1
# [8] = target: GlcA3S(b1-3)Gal(b1-4)GlcNAc(b1-3)Gal(b1-4)Glc
# Procedure, shortened: as §1
# [9] = target: GlcNAc(a1-3)Gal(b1-4)GlcNAc
# Procedure, shortened: as §1
# [10] = target: GlcNAc(a1-4)Gal(b1-3)GlcNAc
# Procedure, shortened: as §1
# [11] = target: GlcNAc(a1-4)Gal(b1-4)GalNAc
# Procedure, shortened: as §1
# [12] = target: GlcNAc(a1-4)Gal(b1-4)GlcNAc
# Procedure, shortened: as §1
# [13] = target: GlcNAc(a1-4)Gal(b1-4)GlcNAc(b1-3)Gal(b1-4)Glc
# Procedure, shortened: as §1
# [14] = target: GlcNAc(a1-4)Gal(b1-4)GlcNAc(b1-3)Gal(b1-4)GlcNAc
# Procedure, shortened: as §1
# [15] = target: GlcNAc(a1-4)Gal(b1-4)GlcNAc(b1-3)Gal(b1-4)GlcNAc(b1-3)Gal(b1-4)GlcNAc
# Procedure, shortened: as §1
# [16] = target: GlcNAc(a1-4)Gal(b1-4)GlcNAc(b1-3)Gal(b1-4)[Fuc(a1-3)]GlcNAc(b1-3)Gal(b1-4)[Fuc(a1-3)]GlcNAc
# Procedure, shortened: as §1
# [17] = target: GlcNAc(a1-6)Gal(b1-4)GlcNAc
# Procedure, shortened: as §1
# [18] = target: GlcNAc(b1-2)Gal(b1-3)GalNAc
# Procedure, shortened: as §1
# [19] = target: GlcNAc(b1-2)Man(a1-3)[GlcNAc(b1-2)Man(a1-6)]Man(b1-4)GlcNAc(b1-4)GlcNAc
# Procedure, shortened: as §1
# [20] = target: GlcNAc(b1-2)Man(a1-3)[GlcNAc(b1-2)Man(a1-6)]Man(b1-4)GlcNAc(b1-4)[Fuc(a1-6)]GlcNAc
# Procedure, shortened: as §1
# [21] = target: GlcNAc(b1-2)Man(a1-3)[GlcNAc(b1-4)][GlcNAc(b1-2)Man(a1-6)]Man(b1-4)GlcNAc(b1-4)GlcNAc
# Procedure, shortened: as §1
# [22] = target: GlcNAc(b1-2)Man(a1-3)[GlcNAc(b1-4)][GlcNAc(b1-2)Man(a1-6)]Man(b1-4)GlcNAc(b1-4)[Fuc(a1-6)]GlcNAc
# Procedure, shortened: as §1
# [23] = target: GlcNAc(b1-2)[GlcNAc(b1-4)]Man(a1-3)[GlcNAc(b1-2)Man(a1-6)]Man(b1-4)GlcNAc(b1-4)GlcNAc
# Procedure, shortened: as §1
# [24] = target: GlcNAc(b1-2)[GlcNAc(b1-4)]Man(a1-3)[GlcNAc(b1-4)][GlcNAc(b1-2)Man(a1-6)]Man(b1-4)GlcNAc(b1-4)GlcNAc
# Procedure, shortened: as §1
binder,measurement,setting,value
B1,glycan array binding signal (z-score),[1],4.13
same,glycan array binding signal (z-score),[2],0.719
same,glycan array binding signal (z-score),[3],3.9
same,glycan array binding signal (z-score),GalNAc(b1-4)GlcNAc6S,4.56
same,glycan array binding signal (z-score),GalNAc(b1-6)GalNAc,-0.303
same,glycan array binding signal (z-score),GalNAc3S(b1-4)GlcNAc,-0.303
same,glycan array binding signal (z-score),GalNAc3S(b1-4)GlcNAc3S,-0.258
same,glycan array binding signal (z-score),[4],-0.308
same,glycan array binding signal (z-score),GalNAc4S6S(b1-4)GlcNAc,-0.304
same,glycan array binding signal (z-score),GalNAc6S(b1-4)GlcNAc,4
same,glycan array binding signal (z-score),Glc(a1-4)Glc,-0.253
same,glycan array binding signal (z-score),[5],-0.302
same,glycan array binding signal (z-score),Glc(a1-6)Glc(a1-6)Glc,-0.276
same,glycan array binding signal (z-score),[6],-0.298
same,glycan array binding signal (z-score),Glc(b1-4)Glc,-0.263
same,glycan array binding signal (z-score),Glc(b1-6)Glc,-0.189
same,glycan array binding signal (z-score),GlcA(b1-3)Gal,-0.309
same,glycan array binding signal (z-score),GlcA(b1-3)GlcNAc,-0.25
same,glycan array binding signal (z-score),GlcA(b1-6)Gal,-0.28
same,glycan array binding signal (z-score),[7],-0.309
same,glycan array binding signal (z-score),[8],-0.088
same,glycan array binding signal (z-score),[9],-0.294
same,glycan array binding signal (z-score),[10],-0.3
same,glycan array binding signal (z-score),[11],-0.304
same,glycan array binding signal (z-score),[12],-0.312
same,glycan array binding signal (z-score),[13],-0.312
same,glycan array binding signal (z-score),[14],-0.311
same,glycan array binding signal (z-score),[15],-0.305
same,glycan array binding signal (z-score),[16],-0.161
same,glycan array binding signal (z-score),[17],-0.276
same,glycan array binding signal (z-score),[18],-0.285
same,glycan array binding signal (z-score),[19],-0.288
same,glycan array binding signal (z-score),[20],-0.26
same,glycan array binding signal (z-score),[21],-0.303
same,glycan array binding signal (z-score),[22],-0.311
same,glycan array binding signal (z-score),[23],-0.301
same,glycan array binding signal (z-score),[24],-0.278
